Test results taken from PubChem BioAssay AID624296 (National Center for Advancing Translational Sciences (NCATS), 2012).
Values joined by “and” are separate entries in the source; they are usually repeats but may differ in a detail not shown here. Equal values may be shown once. About 9,900 (2.8%) of roughly 350,000 compounds were called active. Inconclusive means that the source gave no clear call. Such entries were picked first, then a sample of the others. The call rests on the fitted dose curve; in most records, active means well fitted activation curve with a large enough effect; inconclusive means small, poorly fitted or top-dose-only effect; inactive means no such curve, though single readings can be large or run the other way. A potency beside an inconclusive call is a rough fit, not a confirmed value.
Potency means the concentration at half of the fitted maximal effect; tags describe the fitted curve by direction and shape.

Assay: A quantitative high throughput screen for small molecules that induce DNA re-replication in MCF 10a normal breast cells. Further: nearly all actives have a fitted effect of over 50% in size. On activity, positive = re-replication: % of control where 0% means no effect.
Settings: MCF 10A DNA re-replication, Hoechst nuclear intensity, 48 h; activity, positive = re-replication: at 46.1 µM (top of the series)
With CC1CC(C)(C)CC2(C1)NC(=O)N(CC(=O)OCc1ccc(Br)cc1)C2=O (centres undefined) the Potency was inconclusive: 32.6 µM [activator, single point].
For CCOC(=O)c1nn(-c2ccccc2)c(-c2ccccc2)c1C(=O)c1ccccc1, the Potency was inconclusive: 14.6 µM [activator, single point].
With COc1cnc(N(C)C)nc1Sc1ccc(Cl)cc1 the Potency was inconclusive: 16.4 µM [activator, partial curve, poor fit].
With CC(=O)c1ccc(-c2cccc([C@H]3[C@@H]4C=CC[C@@H](C)[C@@H]4C(=O)N3Cc3ccccc3)c2)cc1 the Potency was inconclusive: 29.1 µM [activator, single point].
For CNC(=O)c1c(NC(=O)CCS(=O)(=O)c2ccc(C)cc2)sc2c1CCN(C(=O)OC)C2, the Potency was inconclusive: 29.1 µM [activator, single point].
In the case of CCCn1c(=O)n(C)c(=O)c2c(SCC(=O)Nc3cc(C)on3)nc(C(C)(C)C)nc21, the Potency is reported as inconclusive: 18.4 µM [activator, single point].
In the case of Cc1nn2c(NC(C)C)c3c(nc2c1-c1ccccc1)CCC3, the Potency is reported as inconclusive: 29.1 µM [activator, partial curve, poor fit].
With COc1ccccc1-c1nnc(Sc2nc([N+](=O)[O-])nn2C)o1 the Potency was active: 9.2 µM.
For O=C(CCCn1nnnc1CN1CCOCC1)N1CCN(c2ccccc2F)CC1, the Potency was inconclusive: 29.1 µM [activator, single point].
With COc1ccc(S(=O)(=O)N2CCc3ccccc32)cc1C(=O)Nc1ccc(C(N)=O)cc1 the Potency was active: 23.1 µM.
With COc1ccccc1Nc1nc(Cl)c(C=O)s1 the Potency was active: 20.6 µM.
With CSc1nc(N(C)NC(=O)c2ccc(Cl)cc2)c2ccccc2n1 the Potency was inconclusive: 2.06 µM [activator, full curve, poor fit].
With COc1cc([C@H]2OC[C@H]3[C@@H]2CO[C@@H]3c2ccc(O[C@H]3O[C@H](CO)[C@@H](O)[C@H](O)[C@H]3O)c(OC)c2)ccc1O[C@@H]1O[C@H](CO)[C@@H](O)[C@H](O)[C@H]1O the Potency was inconclusive: 3.26 µM [activator, full curve, poor fit].
With COc1ccc(-c2csc(NC(=O)c3ccc(S(C)(=O)=O)cc3)n2)cc1 the Potency was inconclusive: 8.2 µM [activator, partial curve, poor fit].
With O=C(/C(=N\Nc1ccccc1)Sc1nnnn1-c1ccccc1)c1ccccc1 the “activity, positive = re-replication” value was inactive: -25.6%.
For N#Cc1ccccc1NC(=O)COC(=O)c1c[nH]c2ccccc12, the “activity, positive = re-replication” value was inactive: 1.38%.
For CC(=O)NC(C)c1ccc(Cl)c(Cl)c1 (centres undefined), the Potency was inconclusive: 16.4 µM [activator, single point].
In the case of COc1ccc(C(=O)Nn2c(SCC(=O)NCc3ccccc3)nc3ccccc3c2=O)cc1, the activity, positive = re-replication is reported as inactive: 70.4% [at 0.0737 µM].
For COC(=O)c1ccccc1NC(=O)Cn1cnc2cc(C)c(C)cc21, the Potency was inconclusive: 5.17 µM [activator, full curve, poor fit].
With CC(C)n1c(CNC(=O)c2ccccc2F)nnc1SCC(=O)c1ccc(F)cc1 the “activity, positive = re-replication” value was inactive: -3.59%.
With Cc1ccc(C(C)C)c(OCC(=O)Nc2sc3c(c2C#N)CC(C)(C)NC3(C)C)c1 the Potency was inconclusive: 23.1 µM [activator, partial curve, poor fit].
In the case of CN1CCN(CCCNC(=O)c2ccc(/C=C3\Sc4ccccc4N(Cc4ccccc4F)C3=O)cc2)CC1, the Potency is reported as active: 16.4 µM.
With O=C(CN1C(=O)c2ccc([N+](=O)[O-])cc2C1=O)Nc1ccccc1N1CCCC1 the “activity, positive = re-replication” value was inactive: -8.9%.
In the case of N#CCSc1nc2c(c(C3CC=CCC3)c1C#N)CCC2 (centres undefined), the Potency is reported as active: 20.6 µM.
With O=C(Nc1ccc(S(=O)(=O)NC2=NCCCCC2)cc1)c1ccc(Cl)c([N+](=O)[O-])c1 the Potency was active: 20.6 µM.
For COc1ccc(CNC(=O)c2coc(=O)c3ccccc23)c(OC)c1, the Potency was inconclusive: 29.1 µM [activator, single point].
For COCCCNC(=S)N(CCO)Cc1cc2cc3c(cc2[nH]c1=O)OCCO3, the Potency was active: 0.651 µM.
In the case of Cc1cc(CN(C)Cc2ccc(OCC(O)CN(C)Cc3ccccc3)cc2)on1 (centres undefined), the “activity, positive = re-replication” value is reported as inactive: -0.68%.
With O=C(CSc1nnc(-c2ccc(Cl)cc2)n1Cc1ccco1)NCc1ccc2c(c1)OCO2 the Potency was inconclusive: 11.6 µM [activator, partial curve].
With CNC[C@@H]1Oc2ccc(NS(=O)(=O)c3ccc(OC)cc3)cc2CC(=O)N([C@H](C)CO)C[C@@H]1C the “activity, positive = re-replication” value was inactive: -5.62%.
For CCS(=O)(=O)c1ccc(-c2csc(-c3ccccc3Cl)n2)c(Cl)c1Cl, the “activity, positive = re-replication” value was inactive: 4.17%.
In the case of N#Cc1cccc(S(=O)(=O)NCC(=O)OCC(=O)c2ccc[nH]2)c1, the “activity, positive = re-replication” value is reported as inactive: -0.71%.
In the case of Cc1nc2cc(NC(=O)CS(=O)(=O)c3ccc(F)cc3)ccc2s1, the Potency is reported as inconclusive: 0.461 µM [activator, partial curve, poor fit].
For CCCn1c(SCC(=O)Nc2cccc(C(=O)OCC)c2)nnc1-c1ccoc1C, the Potency was inconclusive: 3.55 µM [activator, full curve].
With CCC(Sc1nc2ccsc2c(=O)n1-c1ccc(Cl)c(C)c1)C(=O)NCc1ccco1 (centres undefined) the Potency was inconclusive: 23.1 µM [activator, single point].
For CCCn1c2ccccc2c2cnn(CC(=O)N3CCOCC3)c(=O)c21, the “activity, positive = re-replication” value was inactive: -9.06%.
For CC(=O)N(C)c1ccc(N=Cc2c(O)ccc3ccccc23)cc1, the Potency was inconclusive: 32.6 µM [activator, partial curve, poor fit].
In the case of O=C(CSc1nnc(SCc2ccccc2)s1)N/N=C/c1c[nH]c2ccccc12, the Potency is reported as inconclusive: 25.9 µM [activator, single point].
In the case of O=C(COc1ccccc1-c1ccccc1)NN=C1CCCC1, the Potency is reported as inconclusive: 20.6 µM [activator, single point].
With O=C1[C@@H]2Cc3c([nH]c4ccccc34)[C@@H](c3ccccc3)N2C(=O)[C@@H]2Cc3c([nH]c4ccccc34)[C@@H](c3ccccc3)N12 the Potency was inconclusive: 14.6 µM [activator, partial curve, poor fit].
In the case of Cc1ccc(NC(=O)CN2C(=O)c3ccccc3C2=O)c(C)c1, the Potency is reported as inconclusive: 16.4 µM [activator, partial curve, poor fit].
With Cc1ccc2nc(-c3ccc4c(c3)OCCO4)cn2c1 the Potency was active: 5.8 µM.
In the case of CCCCC(O)(c1ccc(CC)cc1)C(CN1CCOCC1)c1ccccc1 (centres undefined), the Potency is reported as inconclusive: 10.3 µM [activator, partial curve, poor fit].
In the case of COc1ccc(-c2coc3cc(O)cc(O)c3c2=O)cc1, the Potency is reported as inconclusive: 3.26 µM [activator, single point] and inconclusive: 16.4 µM [activator, partial curve, poor fit].
In the case of O=C(COC(=O)c1ccccc1)Nc1cc(S(=O)(=O)N2CCCCCC2)ccc1Cl, the Potency is reported as inconclusive: 29.1 µM [activator, single point].
For O=c1c2c(nc3n1CCCCC3)-c1ccccc1CC21CCCC1, the Potency was inconclusive: 16.4 µM [activator, single point].
With CC(=O)OCCN(C)c1cc(SC(C)C)c2nonc2c1[N+](=O)[O-] the Potency was inconclusive: 29.1 µM [activator, single point].
For CCN(CC)C(=O)CSc1nc2c(sc(=S)n2Cc2ccco2)c(=O)n1-c1ccccc1, the “activity, positive = re-replication” value was inactive: 4.87%.
In the case of CCN(CC)C(=O)c1ccc2c3c(cccc13)C(=O)N(CCc1ccc(OC)c(OC)c1)C2=O, the Potency is reported as inconclusive: 14.6 µM [activator, single point].
In the case of Cc1cc(C)c(OCC(=O)NCC(c2ccco2)N2CCCCC2)c(C)c1 (centres undefined), the Potency is reported as inconclusive: 29.1 µM [activator, single point].
In the case of Cc1ccccc1CN(c1ccc(C(=O)N2CCN(C)CC2)cc1)S(C)(=O)=O, the Potency is reported as inconclusive: 25.9 µM [activator, partial curve, poor fit].
In the case of O=C(NCCc1c[nH]c2ccccc12)/C(=C\c1ccco1)NC(=O)c1ccco1, the Potency is reported as inconclusive: 2.31 µM [activator, partial curve, poor fit].
In the case of COc1ccc(-c2nc3cnccn3c2NC2CCCCC2)cc1-c1cccc(Cl)c1, the Potency is reported as inconclusive: 6.51 µM [activator, full curve, poor fit].
In the case of CCOc1cc(N2CCOCC2)c(OCC)cc1NC(=O)COc1ncnc2ccccc12, the “activity, positive = re-replication” value is reported as inactive: 6.59%.
For COc1ccc(NC(=O)C2CCC(N3C(=O)C4C5C=CC(C5)C4C3=O)CC2)cc1 (centres undefined), the “activity, positive = re-replication” value was inactive: -3.32%.
With COc1ccc(C(=O)N/N=C(/C)c2cccc(NC(=O)c3ccccc3F)c2)cc1 the Potency was inconclusive: 7.31 µM [activator, partial curve, poor fit].
With CCc1nc2ccccc2n1CC(C)C(=O)O (centres undefined) the Potency was inconclusive: 1.3 µM [activator, full curve, poor fit].
For Cc1cc2nnc(SC3CCOC3=O)n2c2ccccc12 (centres undefined), the Potency was inconclusive: 23.1 µM [activator, single point].
With CCn1c(SCC(=O)NNC(=O)Cc2ccccc2)nnc1-c1ccccc1 the Potency was inconclusive: 3.66 µM [activator, partial curve, poor fit].
With O=C(NCCc1ccccc1)C1CCC(=O)N(Cc2cccc(C(F)(F)F)c2)C1 (centres undefined) the “activity, positive = re-replication” value was inactive: -2.46%.
For COc1ccc(CN(C)CC(=O)Nc2ccccc2-c2ccccc2)c(OC)c1, the Potency was inconclusive: 29.1 µM [activator, single point].
In the case of CCOC(=O)CSC1=NC(=O)/C(=C/c2ccc(OC)cc2)S1, the Potency is reported as active: 5.8 µM.
In the case of CCOc1ccc2nc(NC3=NC(c4ccc(OC)cc4)CC(=O)N3)nc(C)c2c1 (centres undefined), the “activity, positive = re-replication” value is reported as inactive: -7.66%.
With COc1cc(C(=O)N/N=C(\C)c2ccc3c(c2)OCO3)cc(OC)c1OC the Potency was active: 4.11 µM.
